From the supplement of paper PMC10723795 come the findings set out here.

This assay concerns RPE1. In words: nucleolar normality score relative to DMSO (fraction of DMSO control); RPE1 is a non-cancer human cell line; higher = more normal nucleoli (less nucleolar stress). The note with it: 24 h.

Structures are written as SMILES. Values joined by “and” are separate entries in the source; they are usually repeats but may differ in a detail not shown here. Identical values can stand only once. Counter-ions that a name gives are not always drawn. This is one part of the list.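 The calls were made as follows: active = more than 2 SD below the DMSO mean: under 0.85 at 10 µM or 0.885 at 1 µM; inactive = the rest.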 Repeats are few or missing, and single values can be far off.
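Also: fixed cells immunolabelled for nucleolin and UBF, 40 image fields per well in 384-well plates, per-cell score = nucleolin nucleolar/nucleoplasm intensity ratio divided by the matching UBF ratio.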

As to `O=S(=O)(c1cccc2cnccc12)N1CCCNCC1` [Fasudil (HA-1077) HCl], the nucleolar normality score by setting is: (1 µM) inactive: 0.995; (10 µM) inactive: 1.01.
`O=C(c1ccc(F)c(F)c1Nc1ccc(I)cc1F)N1CC(O)([C@@H]2CCCCN2)C1` [Cobimetinib (GDC-0973, RG7420)]: the nucleolar normality score was inactive: 1.02 (1 µM) and inactive: 1.07 (10 µM).
The corresponding values for `O=C(CSc1nc2c(c(=O)n1-c1ccccc1)SCC2)Nc1ccc(-c2ccccc2)cn1` are inactive: 1.01 and inactive: 1.02.
Consider `CCC(C)(C)C(=O)O[C@H]1C[C@@H](C)C=C2C=C[C@H](C)[C@H](CC[C@@H]3C[C@@H](O)CC(=O)O3)[C@H]21` [Simvastatin], for which the nucleolar normality score is, setting by setting: (1 µM) inactive: 0.976; (10 µM) inactive: 1.03.
Take `CC(/C=C/C=C(\C)C(=O)O[C@@H]1O[C@H](CO[C@@H]2O[C@H](CO)[C@@H](O)[C@H](O)[C@H]2O)[C@@H](O)[C@H](O)[C@H]1O)=C\C=C\C=C(C)\C=C\C=C(/C)C(=O)O[C@@H]1O[C@H](CO[C@@H]2O[C@H](CO)[C@@H](O)[C@H](O)[C@H]2O)[C@@H](O)[C@H](O)[C@H]1O` [Crocin]: the nucleolar normality score was inactive: 1.04 (1 µM) and inactive: 0.903 (10 µM).
For `N#CC[C@H](C1CCCC1)n1cc(-c2ncnc3[nH]ccc23)cn1`, the nucleolar normality score reads like this: (1 µM) inactive: 1.06 and inactive: 1.11; (10 µM) inactive: 1.13 and inactive: 0.929.
In the case of `N#CC[C@H](C1CCCC1)n1cc(-c2ncnc3[nH]ccc23)cn1` [Ruxolitinib Phosphate], the nucleolar normality score reads like this: (1 µM) inactive: 0.945; (10 µM) inactive: 0.983.
The corresponding values for `CCOC(=O)c1c2c3c(cccc3[nH]c1=O)C(=O)c1ccccc1-2` are inactive: 1.01 and inactive: 1.02.
In the case of `Nc1nc(N)c2nc(-c3cccc(O)c3)c(-c3cccc(O)c3)nc2n1`, the nucleolar normality score was inactive: 0.959 (1 µM) and inactive: 1.06 (10 µM).
For `Cn1cnc2c(F)c(Nc3ccc(Br)cc3Cl)c(C(=O)NOCCO)cc21` [Selumetinib (AZD6244)], the nucleolar normality score is, setting by setting: (1 µM) inactive: 0.989; (10 µM) inactive: 1.01.
On the same counts, the results for `C=CC(=O)N[C@H]1CCOC[C@H]1Nc1ncc2cc(-c3c(Cl)c(OC)cc(OC)c3Cl)ccc2n1` are inactive: 0.98 and inactive: 1.05.
On the same counts, the results for `CC(ONC(=O)c1cc(C(F)(F)F)cc(C(F)(F)F)c1)C(=O)Nc1ccc(Cl)cc1` (configuration not stated) are inactive: 1.02 and inactive: 1.08.
Turning to `N#CC1(c2ccc(NC(=O)c3cccnc3NCc3ccncc3)cc2)CCCC1` [Apatinib], the nucleolar normality score was inactive: 1 (1 µM) and inactive: 1.05 (10 µM).
The corresponding values for `Cn1nnc2c(C(N)=O)ncn2c1=O` [Temozolomide] are inactive: 0.92 and inactive: 0.906.
On the same counts, the results for `C=C1C(=O)O[C@H]2[C@H]1CC/C(C)=C/CC[C@@]1(C)O[C@@H]21` [(-)-Parthenolide] are inactive: 1.06 and inactive: 0.922.
As for `COc1ccc(CCC(=O)Nc2nc3ccc(Cl)cc3s2)cc1OC`, the nucleolar normality score (1 µM) was inactive: 1.06 and the nucleolar normality score (10 µM) was inactive: 1.12.
As to `Cc1cc2c(C(=O)NCC(C)c3ccccc3)c(O)c(O)cc2c(O)c1-c1c(C)cc2c(C(=O)NCC(C)c3ccccc3)c(O)c(O)cc2c1O` (configuration not stated) [Sabutoclax], the nucleolar normality score reads like this: (1 µM) inactive: 1.03; (10 µM) inactive: 0.918.
In the case of `COc1ccc(-c2cc3nccn3c(Nc3ncccc3C(N)=O)n2)cc1OC`, the nucleolar normality score (1 µM) is inactive: 1.02 and the nucleolar normality score (10 µM) is inactive: 0.861.
With `COC(=O)C=Cc1ccc(O)c(OC)c1` [Ferulic acid methyl ester], the nucleolar normality score runs as follows: (1 µM) inactive: 1.01; (10 µM) inactive: 1.03.
As for `CC(C)(C)NC(=O)[C@H]1CC[C@H]2[C@@H]3CC[C@H]4NC(=O)C=C[C@]4(C)[C@H]3CC[C@]12C` [Finasteride], the nucleolar normality score runs as follows: (1 µM) inactive: 0.979; (10 µM) inactive: 1.06.
The corresponding values for `Cc1ccc(C(=O)Cn2c3c(sc2=N)CCCC3)cc1` [Pifithrin-α (PFTα) HBr] are inactive: 0.995 and active: 0.692.
The corresponding values for `O=C1C2=C(CCN(Cc3ccccc3)C2)N2CCN=C2N1Cc1ccc(C(F)(F)F)cc1` are inactive: 0.996 and active: 0.78.
In the case of `Cc1ccc(C(=O)N(CCCN)[C@@H](c2oc3cc(Cl)ccc3c(=O)c2Cc2ccccc2)C(C)C)cc1`, the nucleolar normality score is, setting by setting: (1 µM) active: 0.805; (10 µM) inactive: 0.927.
`Cn1cnc(=N)c2[nH]cnc21` [3-Methyladenine (3-MA)]: the nucleolar normality score was inactive: 1.03 (1 µM) and inactive: 0.921 (10 µM).
Regarding `COc1cc2ccc(=O)oc2cc1OC` [Scoparone], the nucleolar normality score is, setting by setting: (1 µM) inactive: 0.952; (10 µM) active: 0.849.
As for `O=C(Nc1cccnc1)N1CCC(Cc2cccc(Oc3ccc(C(F)(F)F)cn3)c2)CC1`, the nucleolar normality score (1 µM) is inactive: 1 and the nucleolar normality score (10 µM) is inactive: 1.07.
Take `Cc1cc(C)nc(NS(=O)(=O)c2ccc(NC(=S)NC(=O)COc3ccc(Br)cc3Cl)cc2)n1`: the nucleolar normality score runs as follows: (1 µM) inactive: 0.943; (10 µM) inactive: 1.03.
The corresponding values for `Cc1cccc(-c2nn3c(c2-c2ccnc4ccc(C(N)=O)cc24)CCC3)n1` are inactive: 1.01 and inactive: 1.07.
On the same counts, the results for `N#Cc1c(Oc2ccc(F)c(NC(=O)Cc3cccc(C(F)(F)F)c3)c2)ccc2nc(NC(=O)C3CC3)sc12` are inactive: 0.994 and inactive: 0.985.
For `CO[C@H]1C[C@@H]2CC[C@@H](C)[C@@](O)(O2)C(=O)C(=O)N2CCCC[C@H]2C(=O)O[C@H]([C@H](C)C[C@@H]2CC[C@@H](OC(=O)C(C)(CO)CO)[C@H](OC)C2)CC(=O)[C@H](C)/C=C(\C)[C@@H](O)[C@@H](OC)C(=O)[C@H](C)C[C@H](C)/C=C/C=C/C=C/1C`, the nucleolar normality score (1 µM) is active: 0.748 and the nucleolar normality score (10 µM) was active: 0.819.
For the compound `Cc1noc(-c2ccc(CSCCC(=O)O)cc2)c1NC(=O)OC(C)c1ccccc1Cl` (configuration not stated), the nucleolar normality score is inactive: 0.967 (1 µM) and inactive: 0.986 (10 µM).
Turning to `Cc1ccc(C(=O)Nc2cccc(C(F)(F)F)c2)cc1Nc1nc(-c2cccnc2)nc2c1cnn2C`, the nucleolar normality score was inactive: 1.07 (1 µM) and inactive: 1.09 (10 µM).
`COc1ccc(-c2cc(=O)c3c(OC)c(OC)c(OC)c(OC)c3o2)cc1OC` [Nobiletin]: the nucleolar normality score (1 µM) is inactive: 0.946 and the nucleolar normality score (10 µM) is inactive: 0.866.
Take `Cc1ccc(S(=O)(=O)OCC(=O)Nc2ccc(C(=O)O)c(O)c2)cc1`: the nucleolar normality score runs as follows: (1 µM) inactive: 0.983; (10 µM) inactive: 1.01.
On the same counts, the results for `C[C@H]1C[C@H]2[C@@H]3CCC4=CC(=O)C=C[C@]4(C)[C@H]3C(=O)C[C@]2(C)[C@@]1(O)C(=O)CO` [Meprednisone] are inactive: 0.994 and inactive: 1.11.
Consider `CC1(C)C=C(CN2C/C(=C\c3ccc(F)cc3)C(=O)/C(=C/c3ccc(F)cc3)C2)C(C)(C)N1O`, for which the nucleolar normality score by setting is: (1 µM) inactive: 1; (10 µM) active: 0.766.
Turning to `CN1CCN(c2ccc3nc(-c4c(N)c5c(F)cccc5[nH]c4=O)[nH]c3c2)CC1` [Dovitinib (TKI258) Lactate], the nucleolar normality score (1 µM) is inactive: 0.981 and the nucleolar normality score (10 µM) was inactive: 1.04.
For `C=CCNC1=C2C[C@@H](C)C[C@H](OC)[C@H](O)[C@@H](C)/C=C(\C)[C@H](OC(N)=O)[C@@H](OC)/C=C\C=C(/C)C(=O)NC(=CC1=O)C2=O` [Tanespimycin (17-AAG)], the nucleolar normality score reads like this: (1 µM) active: 0.411; (10 µM) active: 0.357.
Turning to `Cc1ccc(NC(=S)NNc2c([N+](=O)[O-])cc(C(F)(F)F)cc2[N+](=O)[O-])cc1Cl`, the nucleolar normality score (1 µM) was inactive: 1.04 and the nucleolar normality score (10 µM) was inactive: 1.01.
Consider `COc1c(O)cc(O)c2c(=O)cc(-c3ccccc3)oc12` [Wogonin], for which the nucleolar normality score by setting is: (1 µM) inactive: 1.02; (10 µM) inactive: 0.874.
For `O=C(O)/C=C/c1ccccc1` [Cinnamic acid], the nucleolar normality score is, setting by setting: (1 µM) inactive: 1.06; (10 µM) inactive: 0.897.
In the case of `CC1=NN(c2ccc(C(=O)O)cc2)C(=O)C1=Cc1ccc(-c2cc(C)c(C)cc2[N+](=O)[O-])o1`, the nucleolar normality score is, setting by setting: (1 µM) active: 0.885; (10 µM) inactive: 1.
With `COc1ccc(-c2cc3c(C)nc(N)nc3n([C@H]3CC[C@H](OCCO)CC3)c2=O)cn1`, the nucleolar normality score by setting is: (1 µM) inactive: 0.928; (10 µM) active: 0.849.
The corresponding values for `Cn1c(=O)c(F)c(Nc2ccc(I)cc2F)c2c(=O)n(C[C@@H](O)CO)cnc21` are inactive: 0.968 and active: 0.815.
For `NCCNc1ccc(NCCN)c2c1C(=O)c1ccncc1C2=O` [Pixantrone Maleate], the nucleolar normality score reads like this: (1 µM) active: 0.748; (10 µM) active: 0.257.
Consider `Nc1cc(F)ccc1NC(=O)c1ccc(CNC(=O)/C=C/c2cccnc2)cc1` [Tucidinostat (Chidamide)], for which the nucleolar normality score is, setting by setting: (1 µM) inactive: 0.926; (10 µM) inactive: 0.986.
Consider `Cc1c(Cn2c(C)nc3c(C(=O)O)cc(N4CCOCC4)cc32)cccc1C(F)(F)F`, for which the nucleolar normality score was inactive: 0.943 (1 µM) and inactive: 1 (10 µM).
Regarding `NC(=O)CCCSc1nc(N)nc(-c2c(Cl)cc3c4c(cccc24)COC3)n1`, the nucleolar normality score (1 µM) is active: 0.808 and the nucleolar normality score (10 µM) is active: 0.425.
Regarding `CC(C)c1onc(-c2c(Cl)cccc2Cl)c1COc1ccc(/C=C/c2cccc(C(=O)O)c2)c(Cl)c1`, the nucleolar normality score reads like this: (1 µM) inactive: 0.974; (10 µM) inactive: 0.851.
As for `CO[C@@H](C)Cn1c(=O)n(C)c2cnc3ccc(-c4cncc(C(C)(C)O)c4)cc3c21`, the nucleolar normality score (1 µM) was active: 0.678 and the nucleolar normality score (10 µM) is active: 0.533.
As for `Nc1nc(Nc2ccc(S(N)(=O)=O)cc2)nn1C(=O)c1c(F)cccc1F`, the nucleolar normality score reads like this: (1 µM) inactive: 1.08; (10 µM) inactive: 1.09.
As for `Cc1[nH]c(/C=C2\C(=O)Nc3ccc(S(=O)(=O)Cc4c(Cl)cccc4Cl)cc32)c(C)c1C(=O)N1CCC[C@@H]1CN1CCCC1`, the nucleolar normality score was inactive: 1.04 (1 µM) and inactive: 1.08 (10 µM).
The corresponding values for `NC(=O)[C@@H](CCC(F)(F)F)N(Cc1ccc(-c2ncon2)cc1F)S(=O)(=O)c1ccc(Cl)cc1` are inactive: 1.04 and inactive: 1.04.
As for `CC(C)(Oc1ccc(C2CC2(Cl)Cl)cc1)C(=O)O` (configuration not stated) [Ciprofibrate], the nucleolar normality score runs as follows: (1 µM) inactive: 1.12; (10 µM) inactive: 1.17.
Consider `c1ccc2c(-c3cnn4cc(-c5ccc(N6CCNCC6)cc5)cnc34)ccnc2c1`, for which the nucleolar normality score reads like this: (1 µM) inactive: 1.09; (10 µM) inactive: 1.14.
Regarding `CC(C)C[C@H](NC(=O)c1cc2ccccc2s1)C(=O)N1CCN(C(=O)[C@H](CO)NS(=O)(=O)c2ccc(Cl)cc2Cl)CC1`, the nucleolar normality score runs as follows: (1 µM) inactive: 0.982; (10 µM) inactive: 0.982.
